Assay results taken from the supplement of paper PMC9151546.
Repeats are few or missing, and single values can be far off.

Key:
CHO-K1 [1] = test: relative survival (nuclei to bead ratio vs DMSO control) (% of vehicle control); higher = more surviving cells
Method: (§1)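 Flow-cytometric in vitro micronucleus assay (Litron MicroFlow) in CHO-K1 cells in 96-well plates, 19 concentrations (4.5-200 µM, n=1 per concentration). Without S9, cells were exposed for 24 h and sampled at 48 h. With Aroclor 1254-induced rat liver S9, cells were exposed for 3-4 h and sampled at 27-28 h. Read-outs are %MN and %hypodiploid nuclei relative to nucleated events, and relative survival as the nuclei-to-bead ratio versus the 1% DMSO vehicle control (x100).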

CHO-K1 [2] = test: hypodiploid nuclei frequency (% of nucleated events); higher = more hypodiploid events (aneugenic)
Method: as §1

CHO-K1 [3] = test: micronucleus frequency (% of nucleated events); higher = more micronuclei (genotoxic)
[4] = concentration: 4.48 (µM), S9 metabolic activation: with S9, exposure time: 3-4 hours
[5] = concentration: 4.48 (µM), S9 metabolic activation: without S9, exposure time: 24 hours
[6] = concentration: 5.6 (µM), S9 metabolic activation: with S9, exposure time: 3-4 hours
[7] = concentration: 5.6 (µM), S9 metabolic activation: without S9, exposure time: 24 hours
[8] = concentration: 7 (µM), S9 metabolic activation: with S9, exposure time: 3-4 hours
[9] = concentration: 7 (µM), S9 metabolic activation: without S9, exposure time: 24 hours
[10] = concentration: 8.75 (µM), S9 metabolic activation: with S9, exposure time: 3-4 hours
[11] = concentration: 8.75 (µM), S9 metabolic activation: without S9, exposure time: 24 hours
[12] = concentration: 10.9 (µM), S9 metabolic activation: with S9, exposure time: 3-4 hours
[13] = concentration: 10.9 (µM), S9 metabolic activation: without S9, exposure time: 24 hours
[14] = concentration: 13.7 (µM), S9 metabolic activation: with S9, exposure time: 3-4 hours
[15] = concentration: 13.7 (µM), S9 metabolic activation: without S9, exposure time: 24 hours
[16] = concentration: 17.1 (µM), S9 metabolic activation: with S9, exposure time: 3-4 hours
[17] = concentration: 17.1 (µM), S9 metabolic activation: without S9, exposure time: 24 hours
[18] = concentration: 21.4 (µM), S9 metabolic activation: with S9, exposure time: 3-4 hours
[19] = concentration: 21.4 (µM), S9 metabolic activation: without S9, exposure time: 24 hours
[20] = concentration: 26.7 (µM), S9 metabolic activation: with S9, exposure time: 3-4 hours
[21] = concentration: 26.7 (µM), S9 metabolic activation: without S9, exposure time: 24 hours
[22] = concentration: 33.4 (µM), S9 metabolic activation: with S9, exposure time: 3-4 hours
[23] = concentration: 33.4 (µM), S9 metabolic activation: without S9, exposure time: 24 hours
[24] = concentration: 41.7 (µM), S9 metabolic activation: with S9, exposure time: 3-4 hours
[25] = concentration: 41.7 (µM), S9 metabolic activation: without S9, exposure time: 24 hours
[26] = concentration: 52.2 (µM), S9 metabolic activation: with S9, exposure time: 3-4 hours
[27] = concentration: 52.2 (µM), S9 metabolic activation: without S9, exposure time: 24 hours
[28] = concentration: 65.2 (µM), S9 metabolic activation: with S9, exposure time: 3-4 hours
[29] = concentration: 65.2 (µM), S9 metabolic activation: without S9, exposure time: 24 hours
[30] = concentration: 81.5 (µM), S9 metabolic activation: with S9, exposure time: 3-4 hours
[31] = concentration: 81.5 (µM), S9 metabolic activation: without S9, exposure time: 24 hours
[32] = concentration: 102 (µM), S9 metabolic activation: with S9, exposure time: 3-4 hours
[33] = concentration: 102 (µM), S9 metabolic activation: without S9, exposure time: 24 hours
[34] = concentration: 127 (µM), S9 metabolic activation: with S9, exposure time: 3-4 hours
[35] = concentration: 127 (µM), S9 metabolic activation: without S9, exposure time: 24 hours
[36] = concentration: 159 (µM), S9 metabolic activation: with S9, exposure time: 3-4 hours
[37] = concentration: 159 (µM), S9 metabolic activation: without S9, exposure time: 24 hours
[38] = concentration: 199 (µM), S9 metabolic activation: with S9, exposure time: 3-4 hours
[39] = concentration: 199 (µM), S9 metabolic activation: without S9, exposure time: 24 hours
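Wherever hypodiploid nuclei frequency (% of nucleated events) is given: hypodiploid nuclei gated on a flow cytometer with 488 nm excitation after SYTOX Green staining, cultures at 37 °C, positive controls vinblastine without S9 and cyclophosphamide with S9.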
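Wherever micronucleus frequency (% of nucleated events) is given: cells lysed with nuclei stained by SYTOX Green, then micronucleus-gated events counted against nucleated events by flow cytometry with 488 nm excitation.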
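Wherever relative survival (nuclei to bead ratio vs DMSO control) is given: Lysed-cell nuclei stained with SYTOX Green and counted against counting beads by flow cytometry at 488 nm excitation, with vinblastine (no S9) and cyclophosphamide (plus S9) as positive controls.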

Work on O=C=NCCCCCCN=C=O [1,6-Diisocyanatohexane] yielded a relative survival (CHO-K1 [1]; [4]) of 119, a relative survival (CHO-K1 [1]; [5]) of 115 and a relative survival (CHO-K1 [1]; [6]) of 124. The relative survival (CHO-K1 [1]; [7]) was 117, the relative survival (CHO-K1 [1]; [8]) was 128 and the relative survival (CHO-K1 [1]; [9]) was 128. The relative survival (CHO-K1 [1]; [10]) was 149, the relative survival (CHO-K1 [1]; [11]) was 125 and the relative survival (CHO-K1 [1]; [12]) was 137. The relative survival (CHO-K1 [1]; [13]) was 154, the relative survival (CHO-K1 [1]; [14]) was 163 and the relative survival (CHO-K1 [1]; [15]) was 139. For the same compound, the relative survival (CHO-K1 [1]; [16]) was 146, the relative survival (CHO-K1 [1]; [17]) was 116 and the relative survival (CHO-K1 [1]; [18]) was 149. For the same compound, the relative survival (CHO-K1 [1]; [19]) was 109, the relative survival (CHO-K1 [1]; [20]) was 125 and the relative survival (CHO-K1 [1]; [21]) was 81.1. The relative survival (CHO-K1 [1]; [22]) was 116, the relative survival (CHO-K1 [1]; [23]) was 103 and the relative survival (CHO-K1 [1]; [24]) was 112. For the same compound, the relative survival (CHO-K1 [1]; [25]) was 89.9, the relative survival (CHO-K1 [1]; [26]) was 91.8 and the relative survival (CHO-K1 [1]; [27]) was 84.1. For the same compound, the relative survival (CHO-K1 [1]; [28]) was 102, the relative survival (CHO-K1 [1]; [29]) was 89.5 and the relative survival (CHO-K1 [1]; [30]) was 98.8. For the same compound, the relative survival (CHO-K1 [1]; [31]) was 101, the relative survival (CHO-K1 [1]; [32]) was 106 and the relative survival (CHO-K1 [1]; [33]) was 99. The relative survival (CHO-K1 [1]; [34]) was 110, the relative survival (CHO-K1 [1]; [35]) was 109 and the relative survival (CHO-K1 [1]; [36]) was 101. It also gave a relative survival (CHO-K1 [1]; [37]) of 84.1, a relative survival (CHO-K1 [1]; [38]) of 101 and a relative survival (CHO-K1 [1]; [39]) of 75.5. The hypodiploid nuclei frequency (CHO-K1 [2]; [4]) was 0.22%, the hypodiploid nuclei frequency (CHO-K1 [2]; [5]) was 0.8% and the hypodiploid nuclei frequency (CHO-K1 [2]; [6]) was 0.16%. For the same compound, the hypodiploid nuclei frequency (CHO-K1 [2]; [7]) was 0.92%, the hypodiploid nuclei frequency (CHO-K1 [2]; [8]) was 0.36% and the hypodiploid nuclei frequency (CHO-K1 [2]; [9]) was 0.62%. The hypodiploid nuclei frequency (CHO-K1 [2]; [10]) was 0.28%, the hypodiploid nuclei frequency (CHO-K1 [2]; [11]) was 0.58% and the hypodiploid nuclei frequency (CHO-K1 [2]; [12]) was 0.22%. It also gave a hypodiploid nuclei frequency (CHO-K1 [2]; [13]) of 0.78%, a hypodiploid nuclei frequency (CHO-K1 [2]; [14]) of 0.28% and a hypodiploid nuclei frequency (CHO-K1 [2]; [15]) of 0.52%. The hypodiploid nuclei frequency (CHO-K1 [2]; [16]) was 0.2%, the hypodiploid nuclei frequency (CHO-K1 [2]; [17]) was 0.36% and the hypodiploid nuclei frequency (CHO-K1 [2]; [18]) was 0.24%. It also gave a hypodiploid nuclei frequency (CHO-K1 [2]; [19]) of 0.52%, a hypodiploid nuclei frequency (CHO-K1 [2]; [20]) of 0.24% and a hypodiploid nuclei frequency (CHO-K1 [2]; [21]) of 0.62%. For the same compound, the hypodiploid nuclei frequency (CHO-K1 [2]; [22]) was 0.2%, the hypodiploid nuclei frequency (CHO-K1 [2]; [23]) was 0.7% and the hypodiploid nuclei frequency (CHO-K1 [2]; [24]) was 0.22%. For the same compound, the hypodiploid nuclei frequency (CHO-K1 [2]; [25]) was 0.72%, the hypodiploid nuclei frequency (CHO-K1 [2]; [26]) was 0.24% and the hypodiploid nuclei frequency (CHO-K1 [2]; [27]) was 0.94%. The hypodiploid nuclei frequency (CHO-K1 [2]; [28]) was 0.22%, the hypodiploid nuclei frequency (CHO-K1 [2]; [29]) was 0.88% and the hypodiploid nuclei frequency (CHO-K1 [2]; [30]) was 0.22%. The hypodiploid nuclei frequency (CHO-K1 [2]; [31]) was 0.74%, the hypodiploid nuclei frequency (CHO-K1 [2]; [32]) was 0.24% and the hypodiploid nuclei frequency (CHO-K1 [2]; [33]) was 1%. For the same compound, the hypodiploid nuclei frequency (CHO-K1 [2]; [34]) was 0.24%, the hypodiploid nuclei frequency (CHO-K1 [2]; [35]) was 1.06% and the hypodiploid nuclei frequency (CHO-K1 [2]; [36]) was 0.3%. The hypodiploid nuclei frequency (CHO-K1 [2]; [37]) was 1.04%, the hypodiploid nuclei frequency (CHO-K1 [2]; [38]) was 0.46% and the hypodiploid nuclei frequency (CHO-K1 [2]; [39]) was 1.22%. For the same compound, the micronucleus frequency (CHO-K1 [3]; [4]) was 1.42%, the micronucleus frequency (CHO-K1 [3]; [5]) was 2% and the micronucleus frequency (CHO-K1 [3]; [6]) was 1.8%. For the same compound, the micronucleus frequency (CHO-K1 [3]; [7]) was 2.76%, the micronucleus frequency (CHO-K1 [3]; [8]) was 2.14% and the micronucleus frequency (CHO-K1 [3]; [9]) was 1.56%. The micronucleus frequency (CHO-K1 [3]; [10]) was 2.26%, the micronucleus frequency (CHO-K1 [3]; [11]) was 2% and the micronucleus frequency (CHO-K1 [3]; [12]) was 1.64%. It also gave a micronucleus frequency (CHO-K1 [3]; [13]) of 2.08%, a micronucleus frequency (CHO-K1 [3]; [14]) of 1.52% and a micronucleus frequency (CHO-K1 [3]; [15]) of 2.08%. It also gave a micronucleus frequency (CHO-K1 [3]; [16]) of 1.32%, a micronucleus frequency (CHO-K1 [3]; [17]) of 1.66% and a micronucleus frequency (CHO-K1 [3]; [18]) of 1.78%. It also gave a micronucleus frequency (CHO-K1 [3]; [19]) of 2.14%, a micronucleus frequency (CHO-K1 [3]; [20]) of 1.26% and a micronucleus frequency (CHO-K1 [3]; [21]) of 1.7%. It also gave a micronucleus frequency (CHO-K1 [3]; [22]) of 1.18%, a micronucleus frequency (CHO-K1 [3]; [23]) of 1.66% and a micronucleus frequency (CHO-K1 [3]; [24]) of 1.46%. The micronucleus frequency (CHO-K1 [3]; [25]) was 1.64%, the micronucleus frequency (CHO-K1 [3]; [26]) was 1.6% and the micronucleus frequency (CHO-K1 [3]; [27]) was 1.84%. The micronucleus frequency (CHO-K1 [3]; [28]) was 2.02%, the micronucleus frequency (CHO-K1 [3]; [29]) was 1.62% and the micronucleus frequency (CHO-K1 [3]; [30]) was 1.86%. It also gave a micronucleus frequency (CHO-K1 [3]; [31]) of 1.52%, a micronucleus frequency (CHO-K1 [3]; [32]) of 1.36% and a micronucleus frequency (CHO-K1 [3]; [33]) of 1.94%. It also gave a micronucleus frequency (CHO-K1 [3]; [34]) of 1.74%, a micronucleus frequency (CHO-K1 [3]; [35]) of 2.84% and a micronucleus frequency (CHO-K1 [3]; [36]) of 1.82%. The micronucleus frequency (CHO-K1 [3]; [37]) was 2.18%, the micronucleus frequency (CHO-K1 [3]; [38]) was 1.86% and the micronucleus frequency (CHO-K1 [3]; [39]) was 2.2%.
